# According to the supplement of paper PMC3334620:
# The full ranking holds about 33,000 sequences; the median of “E-score (-0.5 to 0.5)” is about -0.016, and the highest 2% start at about 0.31. Some of the results follow.
# Target: Cst6 (UniProt P40535)
# Assay: PBM E-score (8-mer binding enrichment) (E-score (-0.5 to 0.5)); higher = stronger / more preferred TF binding; most listed sequences are background and not binding sites
# Details: protein concentration: 200 nM; construct: GST-DNA-binding domain
# Summary of the method: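 Universal all-10-mer Agilent arrays, fresh or stripped once, were converted to double-stranded form by primer extension. GST-tagged yeast transcription factors from PURExpress in vitro transcription/translation, full-length or DNA-binding domain only, were applied at about 100-200 nM and detected with fluorescent anti-GST. After masliner normalisation, the Universal PBM Analysis Suite scored each ungapped eight-base word together with its reverse complement by E-score.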
row,Sequence,PBM E-score
1,CCGTTTCG,0.0771
2,AATTCGAC,-0.264
3,ACAGTTCG,-0.0171
4,CGCACCGA,0.00906
5,GATATCAC,0.236
6,CGTTGCAC,-0.0236
7,TGGACAAA,-0.0229
8,CACTGTCG,-0.116
9,GGCCAGCC,-0.253
10,ACAAGCTC,-0.261
11,CGAAGGAC,-0.223
12,ATTTATTA,0.357
13,TTTGAAAA,0.259
14,AATCAGAA,0.00689
15,ATCTCCAT,-0.107
16,AATTTGAG,0.179
17,GGACTGAC,-0.0762
18,ACCCCCCG,-0.351
19,ACTATTTC,0.0977
20,GACTAGTA,0.0969
21,AATGACGC,0.453
22,GACGCGCA,0.0636
23,ATCGAGAG,-0.0727
24,AGTGAGCA,-0.0752
25,CGACGCGC,0.0928

row,Sequence,PBM E-score
1,TATCATAA,0.144
2,CGAACCGC,0.101
3,AGGGGTAA,-0.166
4,AACACCGG,0.0585
5,CGAGGCGC,0.188
6,AACCGGGG,-0.115
7,CCTGTAGC,-0.267
8,CTCTGGGC,-0.17
9,GCCTTAAC,-0.173
10,CTTGTGCA,-0.0617
11,AGAGCGTA,-0.107
12,TACGATGA,0.291
13,ACCCTACC,-0.103
14,AGTATTGA,0.176
15,CCTCTGCG,-0.285
16,AAACGACA,0.118
17,ACGTAAAG,0.306
18,GATCAGGA,-0.172
19,GATAGATA,0.115
20,AAGATGGT,-0.0768
21,ACAGGACT,-0.107
22,CGAATTGA,0.108
23,GATTGCAC,0.0615
24,CTCCACCC,-0.331
25,TGTGAAAA,0.167

row,Sequence,PBM E-score
1,ACATATAG,0.123
2,AAGGAACT,-0.0892
3,TCCTTCAA,-0.037
4,ACGATGTG,0.13
5,TCCATCCA,-0.0853
6,AGCTACGA,-0.12
7,CATTCTCC,0.128
8,AAGGCGGG,-0.183
9,CTCAGCCC,-0.377
10,GTCGCTCA,-0.138
11,CCTAGTCC,-0.337
12,TCTGTACA,0.0521
13,AGATCTGA,-0.0662
14,CGATTTTC,0.276
15,ACGCGTCG,0.0914
16,CGCGTGTA,-0.0143
17,AATACACC,0.138
18,CGACCTAG,-0.107
19,GATCATAC,0.139
20,AGGAATGG,-0.2
21,AGACTTCC,-0.282
22,CTTTGTCA,0.13
23,ACCGCAAG,-0.0198
24,GCTTGAAA,0.0965
25,GCGCTTCC,-0.126

row,Sequence,PBM E-score
1,ATAACGTC,0.38
2,GGCAGACA,-0.174
3,GCCCCAAA,-0.191
4,TCGCTTCA,-0.179
5,GTCAGGGA,-0.115
6,AGCATAAC,-0.0272
7,GCTCGGTA,-0.218
8,TACGGATA,0.114
9,ATTGACTC,0.0413
10,ATGTTCGA,0.0764
11,CAAAATAA,0.238
12,ACGTCCTC,-0.0815
13,AGATACGC,0.0494
14,CACATATC,0.0869
15,ATCTGAGA,-0.0864
16,ATTCTACC,0.0596
17,GATGACCA,0.101
18,ATACAAGC,0.0788
19,CGACTGGC,-0.132
20,ACTTTATA,0.264
21,ACATGTGA,0.0989
22,CAGGGTGG,-0.23
23,CTGTTGAC,0.153
24,CAGATTTC,0.00738
25,ACAGTTTA,0.0128

row,Sequence,PBM E-score
1,CAAGTCAC,0.0766
2,GAGCACCC,-0.379
3,GGGGATAC,-0.211
4,CGCAACGC,0.0646
5,GCGCACAC,-0.137
6,TCTCTACA,0.0285
7,GCGGTCCC,-0.242
8,TTAGGGAA,-0.0124
9,CAGAGAAC,-0.0614
10,AGGCACGA,0.117
11,ATGAAAGC,0.209
12,CCTCGATA,0.109
13,AGTCTGGA,-0.139
14,GCTTCCTA,-0.0171
15,AACAAACG,0.156
16,ACGTGCCC,0.0548
17,GCCGCCCA,-0.122
18,GACTGCCA,-0.0261
19,AGTCAAAG,-0.062
20,ACGCACAA,-0.0302
21,AATGAAGG,-0.0754
22,CCTAGAGC,-0.218
23,CACGCCTA,-0.0609
24,CGGATTAC,0.0253
25,GGCTTTCA,0.222

row,Sequence,PBM E-score
1,GTTTCACA,0.173
2,CGTTGGAG,-0.0858
3,CGCCGCGA,0.241
4,GTTAACTA,0.0802
5,CGTCCCAA,-0.00272
6,CTCACCCC,-0.0415
7,CATCTCCC,-0.202
8,AGGCCATG,-0.00333
9,GCAAAAAC,0.0554
10,CTCAAGAC,-0.114
11,ACCTATAG,-0.0739
12,TCAGTAAA,0.238
13,CCTCATAC,0.106
14,AGTGACTA,0.0534
15,ACAGATGC,-0.0485
16,AACCGACT,-0.142
17,CGACTGCA,-0.0929
18,AACAAACC,0.11
19,CTGTAAGA,0.0332
20,CCGTCTAA,-0.109
21,AAGGCGAG,-0.223
22,GTTGAAAA,0.0847
23,ATGGCCAC,-0.208
24,TAAGAGGA,-0.0598
25,ATGAAAAT,0.295

row,Sequence,PBM E-score
1,CAGTTCAG,-0.0708
2,AAAATTAC,0.257
3,CTCTAGAA,-0.112
4,GGGAGAGA,-0.408
5,CCTTGGGC,-0.166
6,AGCTTTAG,-0.138
7,TCATATAA,0.305
8,TAAATTCA,0.0911
9,CCACCAGA,-0.00821
10,GTACATCA,0.275
11,ATCGAATA,0.00254
12,AGCTGCCT,-0.25
13,ACCGTGTA,0.0493
14,CAATCCAC,0.0953
15,TAAGCTGA,0.113
16,AACCGGTA,-0.104
17,TAACCTAA,0.158
18,CTGAAGAA,-0.261
19,CTCACCAC,-0.0767
20,GAATTGGC,-0.121
21,ATAAACAT,0.208
22,GTATGCAA,0.177
23,CGTGCAAA,0.0895
24,GGCAAACA,0.0939
25,CCAGATCC,-0.293

row,Sequence,PBM E-score
1,CCCATTAG,-0.375
2,ATATGAGA,0.0308
3,ACTAATTG,0.094
4,GAACGTGC,-0.175
5,ACGTCGAG,-0.115
6,GAGAGTGC,-0.06
7,CGACGTAC,0.139
8,CGTAGACG,0.0295
9,CGCCCTAC,-0.132
10,AACAACTC,-0.0344
11,GCGTGTAA,0.0628
12,ACGGTCCG,-0.209
13,GGGCACAA,-0.0454
14,GTCGAAGA,-0.0639
15,ACGCTACT,-0.0234
16,ATTTATAA,0.293
17,CAGGCAGC,-0.202
18,AGATCATC,0.097
19,ATCTAATC,0.229
20,ACAGAAGG,-0.226
21,CTTGAGTA,-0.13
22,CTAGTAAG,-0.00378
23,CCGGATGC,-0.197
24,AAGGAGAA,0.0587
25,ATACTCTG,-0.0234

row,Sequence,PBM E-score
1,ATAGTTGA,0.1
2,ACCCAACA,-0.195
3,CTTGATTC,0.0897
4,ACGAAGAG,-0.0142
5,AGAGCTAA,-0.0708
6,GGTAGCAA,-0.19
7,AGTTAGAC,0.0891
8,ATAGATCA,0.145
9,AGTCAGAA,0.05
10,CTGGCAAC,-0.307
11,TATCTAGA,0.00056
12,ATTGTTGA,0.279
13,AAGTAGTG,0.0897
14,ATAACACA,0.192
15,ATGCAAGC,0.022
16,GAAGCAGC,-0.268
17,AGGTAGCC,-0.199
18,CATCGGCC,-0.18
19,CATATTGC,0.029
